# Test results published in the antibiotic and cytotoxicity screens of Wong et al. (2023).
# The other results are listed elsewhere or left out.
# Test system: S. aureus RN4220
# Experiment: growth inhibition call (relative growth <= 0.2)
# Settings: 50 µM
row,Structure (SMILES),growth inhibition call
1,N=C(N)NCCCC[C@@H]1NC(=O)CCSSC[C@@H](C(N)=O)NC(=O)[C@@H]2CCCN2C(=O)[C@H](Cc2c[nH]c3ccccc23)NC(=O)[C@H](CC(=O)O)NC(=O)CNC1=O,inactive
2,C[C@@H]1CN([C@@H](C)CO)C(=O)c2cc(NS(C)(=O)=O)ccc2O[C@H]1CN(C)C(=O)Nc1ccc2c(c1)OCO2,inactive
3,COc1cccc(NC(=O)N2C[C@@H](O)COC[C@H]3O[C@H](CC(=O)NCCCN4CCOCC4)CC[C@@H]32)c1,inactive
4,COC(=O)c1c2oc(c1C(=O)OC)C(=O)N[C@@H](Cc1ccccc1)Cn1cc(nn1)[C@@H](Cc1ccccc1)NC(=O)N[C@@H](COC(=O)NCCCCCC(=O)NO)CC2,inactive
5,O=c1c(-c2ccc(O)cc2)coc2cc(O)cc(O)c12,inactive
6,C[C@@H]1CN([C@@H](C)CO)C(=O)c2c(c3ccccc3n2C)-c2ccccc2CO[C@H]1CN(C)Cc1ccc(O)cc1,inactive
7,COc1cccc(NC(=O)N[C@H]2C=C[C@@H](CC(=O)N3CCN(C)CC3)O[C@H]2CO)c1,inactive
8,C[C@@H]1CN([C@H](C)CO)C(=O)c2cc(NC(=O)Cn3cnnn3)ccc2O[C@H]1CN(C)S(C)(=O)=O,inactive
9,COCCOC(=O)N1C(=O)[C@@]2(c3cc(C#Cc4ccc(OC)cc4)ccc31)[C@H](c1ccccc1OCCO)N1[C@H](c3ccccc3)[C@H](c3ccccc3)OC(=O)[C@H]1[C@@H]2C(=O)N1CCN(c2ncccn2)CC1,inactive
10,CCOC(=O)c1cc2c(c(-c3cccc(-c4cccc(OC)c4)c3)n1)[C@@H](CCO)N(S(=O)C(C)(C)C)C2 (some centres undefined),inactive
11,C[C@H]1CN([C@@H](C)CO)C(=O)c2cc(NS(=O)(=O)c3ccc(F)cc3)ccc2O[C@@H]1CN(C)S(=O)(=O)c1ccc(F)cc1,inactive
12,CN(C)[C@@H]1C(=O)[C@@H](C(N)=O)C(=O)[C@@]2(O)C(=O)[C@H]3C(=O)c4c(O)ccc(Cl)c4[C@@H](O)[C@H]3C[C@@H]12,active
13,Nc1nc(CO)cs1,inactive
14,COc1ccc(S(=O)(=O)N(C)C[C@H]2Oc3ccc(NC(=O)CCCN(C)C)cc3CC(=O)N([C@H](C)CO)C[C@H]2C)cc1,inactive
15,O=C(C[C@@H]1C[C@@H]2c3cc(NS(=O)(=O)c4ccc(F)cc4)ccc3O[C@@H]2[C@H](CO)O1)N1CCCCC1,inactive
16,C[C@@H]1CN([C@H](C)CO)C(=O)c2cc(NC(=O)Nc3ccc(C(F)(F)F)cc3)ccc2O[C@@H](C)CCCCO[C@H]1CN(C)S(=O)(=O)c1ccc(F)cc1,inactive
17,COc1cc(OC)c(CN(CC#CCOC(=O)NCCCCCC(=O)NO)S(=O)(=O)c2ccccc2[N+](=O)[O-])c(OC)c1,inactive
18,CCOC(=O)N(C)C[C@H]1OCc2cnnn2CCCC(=O)N([C@@H](C)CO)C[C@H]1C,inactive
19,C[C@H]1CCCCO[C@H](CN(C)C(=O)Nc2cccc3ccccc23)[C@@H](C)CN([C@@H](C)CO)C(=O)c2cc(NS(=O)(=O)c3ccc(F)cc3)ccc2O1,inactive
20,CC1(C)[C@H]2CC[C@@]1(C)/C(=N/O)C2,inactive
21,CN(C)CC(=O)N1CC(=O)N2[C@H](C1)[C@H](c1ccc(C#Cc3cccnc3)cc1)[C@@H]2CO,inactive
22,Cc1noc(C)c1NC(=O)Nc1ccc2c(c1)CC(=O)N([C@H](C)CO)C[C@@H](C)[C@H](CN(C)S(=O)(=O)c1cn(C)cn1)O2,inactive
23,C[C@@H]1CCCCO[C@@H](CN(C)C(=O)Nc2cccc3ccccc23)[C@H](C)CN([C@H](C)CO)C(=O)c2cc(NS(=O)(=O)c3ccc(Cl)cc3)ccc2O1,inactive
24,CN1C(=O)c2cc(NC(=O)c3cnccn3)ccc2OC[C@H]2O[C@H](CC(=O)NCC3CCCCC3)CC[C@@H]21,inactive
25,CCS(=O)(=O)Nc1ccc2c(c1)C(=O)N(C)C[C@@H](OC)[C@H](C)CN(C(=O)c1ccc3c(c1)OCO3)[C@H](C)CO2,inactive
26,NCCCCCNC(=O)[C@@H]1C[C@@H]2C(=O)NCC(=O)N2[C@@H]1c1cccc(OCCO)c1,inactive
27,C[C@@H]1CCCCO[C@H](CN(C)C(=O)NC2CCCCC2)[C@@H](C)CN([C@H](C)CO)C(=O)c2cc(NC(=O)c3ccncc3)ccc2O1,inactive
28,COc1ccc(cc1)CN1C[C@]2(CCN(CC2)C(=O)Nc2cccc(c2)F)c2c([nH]c3cc(ccc23)OC)[C@@H]1CO,inactive
29,COCC#Cc1ccc2c(c1)O[C@@H](CN(C)S(=O)(=O)c1ccc(F)cc1)[C@H](C)CN([C@@H](C)CO)S2(=O)=O,inactive
